± gives the standard deviation of the averaged measurements. The list shows a part of the results.
These sequences were tested on PfAP2-EXP AP2 domain (GST-tagged) (assay: gcPBM binding intensity (ln(normalized median fluorescence intensity)); higher = stronger DNA binding).
Summary of the method: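 Binding intensity is defined as the maximum Masliner-normalised natural-log median intensity across replicate spots for either probe orientation. It was measured on an Agilent 4 × 180k array of primer-extended double-stranded 36-bp intergenic genomic probes and negative controls, to which GST-tagged P. falciparum DNA-binding domains made in E. coli were applied for 1 h in 1× PBS with 1% milk, 0.2 mg/ml BSA, 0.5% salmon testes DNA and 0.03% Triton X-100. Detection was by Alexa488 anti-GST antibody and scanning at 488 nm.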

| Sequence | gcPBM binding intensity (ln) |
| --- | --- |
| TATTATTCTGTATTTGCATGTGATCATATATATGTA [TGCATGCA_site1053] | 9.17 ± 0.37 |
| GTATATCATTTTGGGGTGCTTAAAAATAATGAATAC | 9.05 ± 0.38 |
| TATATAACATAATATACACACATTATGTGCGTAATT [CACACA_site4073] | 8.44 ± 0.3 |
| TTTTTTTTTTTTTATTGTACAAAGGTATAAAATAAT [XGTACX_site2396] | 8.61 ± 0.57 |
| TTTTTTTTTTTTTATTGTACTAGTAGATATATATAC [XGTACX_site3463] | 8.5 ± 0.49 |
| CCAATATATACATATATATAGTTATATATATTTCCT [TGCATGCA_negctrl_site38] | 8.38 ± 0.53 |
| GTGTCAAATTTTATAACACACAAAAGATTATATAAG [CACACA_site4086] | 8.46 ± 0.47 |
| ATTAAAAATTAATATAAACACACAAAAATTAATAAA [CACACA_site8019] | 8.58 ± 0.37 |
| TCCTCGCGTAATACTTTTCAAATAAAAAAAATAAAA [TGCATGCA_negctrl_site403] | 8.38 ± 0.38 |
| AAACATACTTGATGCAGTACACATTATAAGCACATA [XGTACX_site3359] | 8.78 ± 0.18 |
| GGACTTAAATAAAATGGTACAGAATTTATATATATT [XGTACX_site8214] | 8.4 ± 0.52 |
| TAATGGAATACATATAGTACATAATATTACATACAT [XGTACX_site5737] | 8.36 ± 0.38 |
| TTTTAAAAATTAAAAAAATTAAATGTAAAAAAATGA [CACACA_negctrl_site861] | 8.52 ± 0.53 |
| ATATATGTATATGTGTGTACATATATGTTTATTATT [XGTACX_site6043] | 8.43 ± 0.28 |
| TTTTTTTTTTTTTTTACACACAAATGTATACTATAT [CACACA_site1787] | 8.46 ± 0.43 |
| TATTAAATATTCATATGTACATATAGTTTATAAATT [XGTACX_site7455] | 8.52 ± 0.33 |
| AAAACGGATTCTTTATAAATAAATAAATAAATATAA [XGTACX_negctrl_site157] | 8.36 ± 0.42 |
| ATATATGTATGTTAGACACACATATTATAATATGTT [CACACA_site116] | 8.53 ± 0.42 |
| AATACATACACAAATACACACACAAATACATACACA [CACACA_site8134] | 8.68 ± 0.52 |

| Sequence | gcPBM binding intensity (ln) |
| --- | --- |
| TTTTTTGTTATGCGGGTGCATATAATAATGTGATGA | 8.76 ± 0.16 |
| TTATTTGTATCCATTTCACACATTTTATATAGTATC [CACACA_site5989] | 8.77 ± 0.45 |
| TATATGTTTTATAAATGTACATATACTTAAATATTT [XGTACX_site4753] | 8.49 ± 0.52 |
| TTATGTGCTTTAAAAGTGCATTTTTTTTTTTTTTTT | 8.68 ± 0.13 |
| TTTATCAAAAAAAAAAAAAAAAAAAAAAAAAATTGT [CACACA_negctrl_site176] | 7.88 ± 0.52 |
| ACTATTAAGAATAAAGAAATATGTAATTGTATTTAA [CACACA_negctrl_site516] | 8.22 ± 0.42 |
| AATACATAATAACGTTGTACAAAAATTATAATACAT [XGTACX_site6508] | 8.94 ± 0.42 |
| TATAAATAAATGTGTACACACATTAAAATCAAACGT [CACACA_site2340] | 8.96 ± 0.39 |
| ATAAATATAAAAAAATGTACATATAGTAATACATAC [XGTACX_site508] | 8.6 ± 0.3 |
| GACTTTTCATTTATAGTGCAAGTTTTTTTTTTTTTT [GTGCAC_site9698] | 8.43 ± 0.18 |
| ATAAGTATAAGAATCAGTACACAGTTTCTACATACT [XGTACX_site5834] | 8.53 ± 0.21 |
| GAAATAAAAAGAAATGCATGTAATTTTTTTTTTTTT [TGCATGCA_site928] | 8.61 ± 0.23 |
| TATATATCATTTAAAACACACAAAAAAAAAAGTTAT [CACACA_site6191] | 8.69 ± 0.53 |
| ATTAAAACCAATTAAAAAAAATTTATAATGGAAGCA [TGCATGCA_negctrl_site273] | 8.47 ± 0.16 |
| AATGACTAAATTTAAACACACAAGGGGAGTTTACTT [CACACA_site918] | 8.37 ± 0.43 |
| GAGATAAAATAAAACACACACATATATATATATAAT [CACACA_site5246] | 8.63 ± 0.47 |
| TATTATTGTTGTTCATGTACACACTATAATAAAAGC [XGTACX_site8957] | 8.64 ± 0.4 |
| AATAAATAAGCACATACACACATACATACATACATA [CACACA_site6075] | 8.63 ± 0.4 |
| TTGTATTTTTAAATGACACACACATATATATATATA [CACACA_site8481] | 10.1 ± 0.38 |

| Sequence | gcPBM binding intensity (ln) |
| --- | --- |
| AAGTTATAAAAATAAAGTACAAAGTAGCTATTTTTT [XGTACX_site3144] | 8.36 ± 0.35 |
| TTTATTATCGTTCTCATACACACAAAATATACATAC [CACACA_site2642] | 8.79 ± 0.45 |
| TAGGCGTTTAATAAAAGTACCCACACATATATTATT [XGTACX_site1932] | 8.55 ± 0.38 |
| CATAAATTAATAGTCACACACGTATTTTTTATATAT [CACACA_site2526] | 8.46 ± 0.47 |
| AAATATATATGTGGGGGTACTAATAAAAAAACCCCT [XGTACX_site2657] | 8.86 ± 0.32 |
| ATTTAACAACTTCAAACACACAATATATATATATAT [CACACA_site2093] | 10.1 ± 0.18 |
| AATTCAAATATAAATACACACACATAGCTACAAAAT [CACACA_site9386] | 8.87 ± 0.52 |
| TGAAAAAAAAAAAAAAAAAAAAGAAAAAAAAAAAAA [CACACA_negctrl_site709] | 8.11 ± 0.22 |
| TTACACAAACAAATTATGGACACATAAGTAAAAGGA [CACACA_negctrl_site1622] | 9.01 ± 0.4 |
| TATAATTCATATGAAACACACATTTATTTTAATTAC [CACACA_site3686] | 8.45 ± 0.41 |
| TTATCCATAAAAAAGTGTACGCACTAAAATTGAAAA [XGTACX_site5460] | 8.69 ± 0.15 |
| GAAAAAAGAAAAAAAAGTACATATATTTAATAAGAC [XGTACX_site6912] | 8.93 ± 0.35 |
| GTTATTTATAGACACACACACATGCATGCACATATA [CACACA_site6204] | 10.2 ± 0.39 |
| TATAGGTATGTATGTACACACAAAAAATGGAATATA [CACACA_site7704] | 8.93 ± 0.39 |
| TATATATATATATATTGTACATAATGTATATATGTT [XGTACX_site3448] | 10 ± 0.35 |
| CACACCCACAGACACACACACACATATATATATATA [CACACA_site363] | 10 ± 0.099 |
| ATATATATATATATTTGTACATATATACATAAAATT [XGTACX_site359] | 10.1 ± 0.26 |
| GAAAAAGTTATAAATTGTACTAAATATTAAATATTG [XGTACX_site7890] | 8.2 ± 0.38 |
| TTTAAAATGGGACTTTGAAAAAAAAAAAAAAAAACA [TGCATGCA_negctrl_site111] | 8.24 ± 0.44 |
